Measured values from PubChem BioAssay AID686978 (National Center for Advancing Translational Sciences (NCATS), 2013).
Hit rate of the full screen: of about 420,000 compounds, about 64,000 (15%) were called active. Inconclusive means that the source gave no clear call. Such entries were picked first, then a sample of the others. The call rests on the fitted dose curve; in most records, active means well fitted inhibition curve with a large enough effect; inconclusive means small, poorly fitted or top-dose-only effect; inactive means flat fitted curve, though single readings scatter. No potency is given beside an inconclusive call; the fits are too rough.

Assay: qHTS for Inhibitors of human tyrosyl-DNA phosphodiesterase 1 (TDP1): qHTS in cells in absence of CPT; further: nearly all actives have a fitted effect of over 55% in size
Settings: DT40 Tdp1-/- hTDP1 cells, no CPT, ATP luminescence, 48 h; activity change, negative = growth inhibition: at 46.2 µM (top of the series) unless noted
Outline: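 DT40 Tdp1-/-;hTDP1 cells, no CPT (DMSO vehicle only), 400 cells/well; compounds pin-transferred; ≥48 hr, 37 °C; CellTiter-Glo 30 min RT dark, luminescence read.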
On the % scale 0 is the no-effect control and ±100 the full control effect; potency means the concentration at half of the fitted maximal effect; tags describe the fitted curve by direction and shape.

Compound	Potency	activity change, negative = growth inhibition
O=C(Nc1ccc2nc(-c3ccco3)c(-c3ccco3)nc2c1)N1CCCCCC1	active: 14.6 µM	–
Cc1ccccc1Cn1cc(NC(=O)c2nn(C)cc2Cl)cn1	inconclusive [inhibitor, single point]	–
C=C(C)c1ccc(C(C)(C)NC(=O)N2CCN(C)CC2)cc1	active: 20.6 µM	–
CC(C)CNC(=O)c1cccc(NC(=O)c2ccc3c(c2)C(=O)N(C)C3=O)c1	–	inactive: -15.5%
O=C(COC(=O)c1c(Cl)cccc1Cl)NC1CCCCCCC1	inconclusive [inhibitor, single point]	–
O=C(CSc1ncc(C(F)(F)F)cc1Cl)N1CCN(S(=O)(=O)c2ccccc2)CC1	inconclusive [inhibitor, full curve, poor fit]	–
CC(Cc1cccnc1)NC(=O)c1cc(COc2c(F)cccc2F)on1 (centres undefined)	inconclusive [inhibitor, single point]	–
CCCCCCc1cc2cc(-c3nnc(-c4ccc(C)cc4)o3)c(=O)oc2cc1O	inconclusive [inhibitor, partial curve]	–
C=CCn1c(SCC(=O)Nc2ncc(Cc3cc(Cl)ccc3Cl)s2)nnc1-c1ccncc1	–	inactive: -1.89%
Cc1nnc(-c2ccc(N3CCCCCC3)c([N+](=O)[O-])c2)o1	inconclusive [inhibitor, full curve, poor fit]	–
CCOc1ncccc1C(=O)OCC(=O)c1ccc[nH]1	–	inconclusive: -30.2% [inhibitor]
COc1ccc(CN(C(=O)c2oc3ccc(F)cc3c2C)C2CCS(=O)(=O)C2)cc1 (centres undefined)	inconclusive [inhibitor, single point]	–
CC(NC(=O)CSc1ncccn1)c1ccc(Cl)cc1Cl (centres undefined)	inconclusive [inhibitor, partial curve, poor fit]	–
Cn1c(C23CC4CC(CC(C4)C2)C3)n[nH]c1=S	inconclusive [inhibitor, partial curve]	–
O=C(NCc1cccnc1)C(=O)NCC(c1cccnc1)N1CCN(c2ccccc2)CC1 (centres undefined)	inconclusive [inhibitor, single point]	–
CCCCCNC(=O)C(CCc1ccccc1)n1c(=O)c(-c2cc3ccccc3[nH]2)nc2ccccc21 (centres undefined)	inconclusive [inhibitor, single point]	–
COC(=O)c1sccc1NC(=O)Nc1ccc(C)cc1	–	inactive: 15.2%
Cc1ccc(Cl)cc1-c1cc(C(=O)NCc2cccc(Cl)c2)[nH]n1	inconclusive [inhibitor, single point]	–
COc1c(C(=O)Nc2ccc(Cc3ccncc3)cc2)ccc2ccccc12	active: 23.1 µM	–
COc1cccc(-c2c(-c3ccccc3OC)ncn2Cc2cccc(-c3ccccc3)c2)c1	active: 11.6 µM	–
COc1ccc(CC2(CO)CCN(C(C)COc3ccccc3)CC2)cc1 (centres undefined)	inconclusive [inhibitor, single point]	–
COCc1cc(C)nc(OCC(=O)N/N=C/c2ccc(-c3cc([N+](=O)[O-])ccc3C)o2)c1C#N	–	inconclusive: -32.9% [inhibitor]

Compound	Potency	activity change, negative = growth inhibition
O=C(Nc1ccc(Cl)cc1F)C1CCN(S(=O)(=O)c2cccnc2)CC1	inconclusive [inhibitor, partial curve, poor fit]	–
Cc1cc(C)c(C#N)c(SCC(=O)N2CCN(Cc3ccccc3)CC2)n1	inconclusive [inhibitor, partial curve, poor fit]	–
Fc1ccc(/C=N/NC(=S)Nc2ccc(Cl)cc2)cc1F	active: 23.1 µM	–
CN(Cc1ccccc1)C(=O)c1ccc(NC(=O)Cc2cccc(NC(=O)C3CCN(C(=O)C4CCC4)CC3)c2)cc1	inconclusive [inhibitor, partial curve]	–
CCOc1ccc(NC(=O)c2cccc(NC(=O)c3ccccc3)c2)cc1	inconclusive [inhibitor, single point]	–
Nc1ccc(Br)c2c1C(=O)c1ccccc1C2=O	–	inconclusive: -37% [inhibitor]
NC(=O)Cn1c(=O)n(C2CCCCC2)c(=O)c2c3c(sc21)CCCCC3	inconclusive [inhibitor, single point]	–
c1ccc(Oc2cccc(OCCCCSc3ncccn3)c2)cc1	–	inactive: -19.8%
CN(CC(=O)Nc1ccccc1Br)C(=O)c1cc2c(s1)CCCCC2	inconclusive [inhibitor, single point]	–
CCCn1c(=O)c2ccccc2n2c(SCC(=O)c3ccc(CC)cc3)nnc12	inconclusive [inhibitor, single point]	–
CC1=C(C(=O)OCc2ccccc2)C(c2ccco2)C2=C(CC(C)(C)CC2=O)N1 (centres undefined)	inconclusive [inhibitor, single point]	–
ON=C(c1ccccc1)c1ccc2c3c(cccc13)CC2	active: 18.4 µM	–
COc1cc(OC)c2c(-c3cccc(-c4ccoc4)c3)cc(=O)oc2c1	inconclusive [inhibitor, single point]	–
Cc1cccc(OCC(=O)Nc2ccncc2)c1	inconclusive [inhibitor, single point]	–
COc1ccc2cc(C(=O)NCc3ccc4c(c3)CCN4C(=O)c3ccc(C)cc3)[nH]c2c1	inconclusive [inhibitor, partial curve]	–
Cn1c(=O)n(Cc2ccccc2)c(=O)c2c1nc1n2CCCN1C1CCCCC1	–	inactive: -17.5%
CCNC(=S)N1CCC(c2nc3cc(C)c(C)cc3[nH]2)CC1	–	inactive: -14.5%
N#C/C(=C\c1c(F)cccc1Cl)C(=O)NC1CC1	inconclusive [inhibitor, single point]	–
COCC(=O)N1CCC[C@@]2(CCN(Cc3nccs3)C2)C1	–	inactive: 3.33%
CC(=O)N1CCN(C(=S)NC(=O)c2ccc(S(=O)(=O)N3CCOCC3)cc2)CC1	–	inactive: 0.0721%
CCOC(=O)C1CCCN(S(=O)(=O)c2ccc3c(c2)CC(C)N3C(=O)C2CC2)C1 (centres undefined)	–	inactive: -18.9%
COC(=O)[C@@H]1C[C@H]2CC[C@H](O)C[C@H]2N1Cc1ccc(C(F)(F)F)cc1	–	inactive: -25.1%
